Over roughly 13,000 compounds, “IFI” has its median near 4; the highest 2% begin near 17. The list shows a part of the results.
Experiment: GSK_TCMDC: Inhibition Frequency Index (IFI). The number of non-kinase HTS assays where a compound showed > 50 % inhibition, expressed as a percentage of the number of such assays in which the compound was tested (-0 is zero)
Type: functional

SMILES	IFI [%]
Nc1c2c(nc3cc(NC(=O)c4ccc([N+](=O)[O-])cc4)ccc13)CCCC2	0
N#Cc1ccc2[nH]c(-c3ccccc3)nc2c1	-0
COc1ccc2nc3cc(Cl)ccc3c(Nc3ccc(Sc4ccc(Nc5c6ccc(Cl)cc6nc6ccc(OC)cc56)cc4)cc3)c2c1	2.19
CC(C)Nc1nc(NCCc2c[nH]cn2)nc(NCc2ccc(Cl)c(Cl)c2)n1	1.46
Cc1ccc(-c2nnc3c4ccccc4c(C)nn23)cc1S(=O)(=O)N1CCN(CCO)CC1	1.69
CC(C)(CN1CCCC1)CN(Cc1ccc(-c2ccc(C(F)(F)F)cc2)cc1)C(=O)Cn1c(CCc2cccc(F)c2F)nc(=O)c2ccccc21	7.04
O=C(N[C@@H](CC1CCCCC1)C(=O)NC1CCCc2ccccc21)c1ccc(O)c(-c2ccc(Cl)c(Cl)c2)c1 (some centres not stated)	2.22
COc1cc(C(=O)NC2CCN(Cc3ccccc3)CC2)ccc1-c1nc2cc(Cl)c(Cl)cc2[nH]1	-0
O=C(/C=C/c1ccsc1)N1CCC(CCN2CCC(c3c[nH]c4ccccc34)CC2)CC1	3.79
CN(C)Cc1cccc2nc(-c3csc(Cc4cc(Cl)ccc4OCc4ccccc4)n3)[nH]c12	10.2
N#Cc1ccc(N/C(=N\c2ccc(-c3ccccc3)cc2)NCCc2c[nH]c3ccccc23)c(O)c1	0.74
COc1ccc(CCNCCCCCCNCCc2ccc(Cl)cc2)c(Cl)c1OC	10.4
CN(C)CCOc1ccc2c(c1)OC(C)(C)C=C2c1cccc2ccccc12	2.19
O=C(NC1CC1)c1ccc(N2CCC(c3ccccc3)CC2)nc1	-0
FC(F)(F)c1ccc2[nH]ccc(=NN=Cc3cccc(Cl)c3)c2c1	0
c1ccc2[nH]c(-c3ccc(-c4ccc(CN5CCC(N6CCCCC6)CC5)cc4)s3)nc2c1	5.36
CCOc1c(OC)ccc2c1CCN(CCN1CCC(CNC(=O)c3ccc(-c4ccc(C(F)(F)F)cc4)cc3)CC1)C2	11.7
COc1cc2nc(SCCCC#N)n(C3CCCCCC3)c(=N)c2cc1OC	3.6
Cc1nccn1Cc1cc(C(C)(C)C)c(O)c(C(C)(C)C)c1	1.48

SMILES	IFI [%]
COc1ccc(CN2CCC(Oc3cccc(NC(=O)c4ccc(C(F)(F)F)cc4)c3)CC2)cc1	10.4
CN(C)c1ccc(CN2CCC(CNC(=O)c3cc(-c4cccc(F)c4)cs3)C2)cc1 (configuration not stated)	6.12
O=[N+]([O-])c1ccc(N/C(=N\c2ccccc2Br)NC2CCCc3ccccc32)c(O)c1 (configuration not stated)	4.17
COc1ccc2ncc(F)c([C@@H](O)CN3CCC(NCc4cc5c(cn4)OCCO5)CC3)c2c1	0.93
CCCC1N=C(N)N=C(N)N1c1ccc(CC)cc1 (configuration not stated)	1.44
O=C(C=CC(=O)N1CCCCC1)NCc1ccccc1	-0
Cc1cc(N/N=C/c2cccc([N+](=O)[O-])c2)c2cc(F)ccc2n1	0
CCCC(CNCc1ccccc1)CNc1cc(=O)c2ccccc2[nH]1 (configuration not stated)	3.62
Cc1[nH]c2ccccc2c1C(=O)C(C)Sc1nnc(-c2ccccc2F)o1 (configuration not stated)	1.64
CCCc1ccccc1OCC(O)CN(C1CCCC1)C1CCCC1 (configuration not stated)	8.28
CN(c1ccccc1C(=O)Nc1cc(Cl)ccc1Oc1ccccc1)S(=O)(=O)c1ccccc1	1.87
CN(C)Cc1c(O)ccc2[nH]c(-c3cccc(F)c3)nc12	1.2
CCN(CC)CCN(CCCc1ccc(-c2ccc(C(F)(F)F)cc2)cc1)C(=O)Cn1c(CCc2cccc(F)c2F)nc(=O)c2ccccc21	7.91
CN(C)c1ccc(NC2=NC(N)=NC(C)(C)N2)cc1	1.82
COc1ccc2nc3cc(Cl)ccc3c(NCCNCC(O)CO)c2n1 (configuration not stated)	3.4
Cc1cc(CN2CCCN(c3ccc4c(c3)CCN(Cc3ccc(-c5ncc[nH]5)cc3)CC4)CC2)n(C)n1	1.72
O=[N+]([O-])c1cccc(CNC2CCN(Cc3ccc(Cl)c(Cl)c3)CC2)c1	2.88
CCOC(=O)CNC(=O)N(CCN(Cc1ccccc1)C(=O)NCC(=O)OCC)Cc1ccccc1	0.73
N#Cc1ccc2c(c1)CCN(CCC1CCC(NC(=O)/C=C/c3c[nH]c4ccc(F)cc34)CC1)CC2 (configuration not stated)	2.26

SMILES	IFI [%]
CC(C)c1ccc(C2CCN(CCCCNC(=O)c3ccc(NC(=O)c4ccc(C(F)(F)F)cc4)cc3)CC2)c(O)c1	10.3
Cc1cccc(CCNC(=O)c2cc(Br)cc(N3CCN(c4ccncc4)CC3)c2)c1	13.8
O=C(Nc1ccc2ccccc2c1)N(CCCn1ccnc1)Cc1csc(-c2ccc(CNCc3ccccc3)cc2)n1	8.11
COc1ccccc1CCNc1nc(C)cc(N[C@@H](Cc2ccccc2)C(=O)NCc2cccc(F)c2)n1	16.3
O=C(CSc1nccn1C1CCCC1)Nc1cc(C(F)(F)F)ccc1Cl	5.36
c1csc(-c2ccc3c(c2)CC(NCc2c[nH]c4cnccc24)C3)c1 (configuration not stated)	2.33
COc1cc(C(=O)Nc2ccc3nc(N4CCN(C)CC4)cc(C)c3c2)cc(OC)c1OC	0
CO[C@H](C)[C@H](NC(=O)[C@H](CC(C)C)[C@H](CCC(F)(F)F)N(O)C=O)C(=O)Nc1nccs1	3.68
CC(=O)Nc1ccc(CNC2Cc3ccc(-c4ccc(Cl)c(Cl)c4)cc3C2)cc1 (configuration not stated)	16.1
FC(F)(F)COc1ccc2ccccc2c1CCNCCCCNCCc1c(OCC(F)(F)F)ccc2ccccc12	23.4
CCOc1ccc(C=CC(=O)Nc2ccc3nc(N4CCN(C)CC4)cc(C)c3c2)cc1OC	5.44
COc1ccc(NC(=O)c2ccc(Br)c(C)c2)cc1N1CCN(Cc2ccccc2)CC1	-0
Clc1cccc(C23N/C(=N\c4nc5ccccc5[nH]4)NC2(c2ccccc2)N/C(=N\c2nc4ccccc4[nH]2)N3)c1 (configuration not stated)	3.62
Cc1cc(Cl)c(S(=O)(=O)NC2CCCC2)cc1OCC(=O)NC1CCCCC1	8.93
CS(=O)(=O)c1ccc2c(c1)CCN(CCC1CCC(NC(=O)c3cc4cccc(Br)c4[nH]3)CC1)CC2 (configuration not stated)	7.59
COc1ccc(CN2CCCC(N3CC4(OC3=O)c3ccccc3-c3ccccc34)C2)c(O)c1 (configuration not stated)	1.57
CN(C)c1c(CNCCCCCCNCc2ccc3ccccc3c2N(C)C)ccc2ccccc12	15.7
Cc1c(F)cc(C(=O)NC2CC2)cc1-c1ccc2c(c1)c(C)nn2S(=O)(=O)c1cccs1	3.55
COc1cc2nc(N3CC(C)N(C(=O)Cc4ccc(-c5ccccc5)cc4)C(C)C3)nc(N)c2cc1OC (configuration not stated)	6.09
